# Laboratory results taken from the supplement of paper PMC11417369.
# ± gives the standard deviation of the averaged measurements. This is one part of the list.
# System: PfAP2-I AP2 domain 3 (GST-tagged)
# Assay: gcPBM binding intensity (ln(normalized median fluorescence intensity)); higher = stronger DNA binding
# Summary of the method: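 An Agilent 4 × 180k array carrying primer-extended double-stranded 36-bp intergenic genomic probes and negative controls received GST-tagged P. falciparum DNA-binding domains expressed in E. coli, about 25 μg on average, for 1 h. The binding buffer contained 1× PBS, 1% milk, 0.2 mg/ml BSA, 0.5% salmon testes DNA and 0.03% Triton X-100. Binding intensity is the top Masliner-normalised natural-log median intensity across replicate spots of either probe orientation, read after Alexa488 anti-GST antibody staining and a 488 nm scan.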
row,Sequence,gcPBM binding intensity (ln)
1,AAGTTTATCACAGCCACGCACACATAATATATGTAT [CACACA_site3670],7.86 ± 0.72
2,TTTAAAAATGCTACATGTACAAAATAAAATATAATA [XGTACX_site2905],7.93 ± 0.61
3,ATATATATATATAAAAGTACATGCTTATATATATAT [XGTACX_site3786],9.48 ± 0.26
4,TACAAAATATATATGACACACATAAAAAAAAGTATA [CACACA_site1373],7.74 ± 0.45
5,TATATAAACATACATACACACATACAATAAGTAAAA [CACACA_site5118],7.97 ± 0.49
6,CACCCACTAATAAACACACACATATATATATATATA [CACACA_site389],9.46 ± 0.34
7,ATTTTTTTTATTCAATGTACTTTTTTTTATATATAT [XGTACX_site4978],8.15 ± 0.26
8,AATAAAATGAGATGTTGTACAGTTTTGATATATGCA [XGTACX_site3052],7.96 ± 0.19
9,GTATGTATGTATGTATGTACTTATGTAGTCTTAGTT [XGTACX_site1710],8.91 ± 0.27
10,AGTGTAGGTATATAAACACACATACAGATATATAAT [CACACA_site4900],7.67 ± 0.93
11,TAAAAAATAAAATGGACACACACGTTCAAATTTAGA [CACACA_site2083],7.57 ± 0.59
12,TTAATAAACCTTAGATGTACAGTTATATATAAAATA [XGTACX_site6681],7.64 ± 0.36
13,ATATATATATATATATGTACACATATATGTGTTTGT [XGTACX_site62],9.3 ± 0.4
14,TGAACTCACGAGCACACACACACATATATATATATA [CACACA_site8248],9.4 ± 0.23
15,ATATATATTTTTTAATGTACTTATATTTTTATAATA [XGTACX_site2103],8.11 ± 0.39
16,ATACAATAAAGGTGTACACATATATGATGCAAGATG [CACACA_site5897],8.64 ± 0.45
17,GGTCATATTTTTTGCACACAAAAAAAAATATAAAAT [CACACA_site3381],9.42 ± 0.16
18,AGCAATTGTGTTTTCACACATAAATATATTCCTCAC [CACACA_site5021],7.78 ± 0.54
19,AATTAAACTCACACCACACACAAAAAAAAAAAAAAA [CACACA_site693],8.21 ± 0.41
20,AATATTACAAAATATTGTCCGTACAAATTTTTAATA [XGTACX_site8129],7.64 ± 0.52
21,AAAAAAAAAAAAAAGACACACATATATATATATATA [CACACA_site633],9.31 ± 0.19
22,GATGATAAAATATGTACACACAGTTTATACATTTTG [CACACA_site4055],7.71 ± 0.43
23,TTAACATATTATAAGTGTACATATTTATAAACAAGA [XGTACX_site8806],8.1 ± 0.29

row,Sequence,gcPBM binding intensity (ln)
1,ATTTTGAAAAATAAAAGTACATATAATATATCTACA [XGTACX_site7185],7.6 ± 0.26
2,TCTGTTAATATTTATACACACATATTTATTTATATA [CACACA_site6658],7.78 ± 0.57
3,ATATACATATATATGGGTACATATATTAATATATAT [XGTACX_site8358],7.84 ± 0.35
4,TTTAGATATATGGTAGTGCATAATAAAAATATAGCC [GTGCAC_site9449],11.1 ± 0.67
5,CACTCCATATTATACACACACACAAATGAAAAAAAT [CACACA_site3019],8.14 ± 0.38
6,ATATCGGGTGCATTAACACACATTTATTTGAATAAA [CACACA_site2350],11.7 ± 0.79
7,TAAAATATAATAAAATGTACACGCATGCAATAGAAT [XGTACX_site7434],8.54 ± 0.64
8,GCTTCTTAGTATACTTTATAAAATATATATTAAATA [XGTACX_negctrl_site57],8.09 ± 0.48
9,ATATATCATAATAGAGGTACACATATTATATATATA [XGTACX_site782],8.55 ± 0.33
10,TTTATAAATATATATACACACACATATATATTATAT [CACACA_site8099],7.66 ± 0.45
11,ATATTAAATATAATTTGTACGCATTTTTTTTTTTTT [XGTACX_site1910],8 ± 0.057
12,TTCCCTTTTTTTATTTGTACTTATCTTTTAAATAAT [XGTACX_site2497],8.21 ± 0.49
13,AATTATAATTAATAGAGTACTGAATATATATATATA [XGTACX_site8683],9.23 ± 0.2
14,AGCATTTTTCATTTTGCACACATGTTTTATGTGTAT [CACACA_site3454],9.4 ± 0.33
15,TTAAAAATATATGAATGTACATATATTTATATATAT [XGTACX_site77],8.04 ± 0.68
16,TACTTACCAAAATACACACACACACCCAATATATAA [CACACA_site1871],8.04 ± 0.39
17,TTTTTTTTATTAGTGTGTACGCATTTATTTATACAT [XGTACX_site1599],8.45 ± 0.43
18,TTTAAATTATGAAATTGTACATATAAAAATATTTTA [XGTACX_site4796],7.86 ± 0.15
19,TATATATTATTTAAAACACACAAAAAAAAAAATTAT [CACACA_site89],7.84 ± 0.62
20,TATATTGAATGCAAAAGTACATTTGTGTAAATTTAT [XGTACX_site7611],8 ± 0.48
21,TTTTTGTATTCTACCTTAACAATCTTAAAGATTTTT [CACACA_negctrl_site1157],7.86 ± 0.76
22,TTTTTTTTTTTAAAATGTACACGTAATTACATATAT [XGTACX_site752],7.99 ± 0.67
23,TGATGGTTACGTTTATGTACACATTACAGTTAGTAT [XGTACX_site998],7.79 ± 0.52

row,Sequence,gcPBM binding intensity (ln)
1,AAAATATATTAAGGCACACACATACATATATATATA [CACACA_site3723],10.1 ± 0.4
2,GAGTTAATATTTAAAAGTACAAGATGAATGTAAAAA [XGTACX_site5810],8.01 ± 0.57
3,ACTACATTATTGCATTGTACTTTTTTTTTTTTTTTA [XGTACX_site4605],8.22 ± 0.56
4,TAAAATATATATATGTGTACATAACATATAATTTTT [XGTACX_site1725],7.61 ± 0.11
5,TTATTTAGTATATTATGTACATACAATGCCTGGGAA [XGTACX_site4578],8.1 ± 0.51
6,TATTGTTGTTCATGTACACACTATAATAAAAGCAAT [CACACA_site6148],8.2 ± 0.42
7,AGTATAAAAATATATTTACACACTATATATATCGAA [CACACA_site8494],7.78 ± 0.46
8,ATATGTTACAGACACACACACACATAAAAAAACAAA [CACACA_site3248],8.01 ± 0.44
9,TTTTCATATTATAGTGCACACAAAAATATATATATG [CACACA_site8929],11.5 ± 0.47
10,ATATATATATATATATGTACATATTGTATTAATTAT [XGTACX_site1919],9.31 ± 0.11
11,CTCTGTTGTCTTAGTTGTACAATAGAAAAAAATAAT [XGTACX_site7043],8.38 ± 0.18
12,TCTTTTAAACAGTACACACACACATCTATATTTATA [CACACA_site6559],8.2 ± 0.32
13,TTTTTTACTTTTGAGACATTTCATATTTTTATTCAC [GTGCAC_negctrl_site730],7.73 ± 0.71
14,TACAGGAATATTTTTACACACTAAAAATTATAAAAT [CACACA_site1649],7.67 ± 0.68
15,TGATTGAGTAAAATGGGTACATATACACTATTACAT [XGTACX_site5232],7.82 ± 0.57
16,AAAGGTTCACATTATATAGTTATGTAATATATATGT [CACACA_negctrl_site542],7.63 ± 0.67
17,ATATTGTATTTATGTACACACATTTTTGGAATATGA [CACACA_site4861],8.06 ± 0.28
18,TTTTTTCTCTGTGGCTGTACTTTGAAGATATTTTAT [XGTACX_site8243],8.11 ± 0.58
19,TGTTTATTTTTAAAAAGTACATATATAAAAAATATC [XGTACX_site4902],7.89 ± 0.28
20,ATAATTTGGAAACACACACACACACCCACATATATA [CACACA_site2286],8.34 ± 0.2
21,TTAAATGAAAAATGGGGTACATATATACAAATATAT [XGTACX_site5931],8.1 ± 0.38
22,AAAAAAAAATACTACTGTACTTTTTTTGGACATCTA [XGTACX_site1096],7.73 ± 0.057
23,TGATTATACGCACGCGCACACACAACCAAAAAAAAA [CACACA_site3537],9.36 ± 0.18

row,Sequence,gcPBM binding intensity (ln)
1,AAAAAAGGAAAAGATACACACCGTAAATTAAAATTT [CACACA_site5908],7.54 ± 0.62
2,GAAGGAATATACAATTGTACTTGGCAAAAAAAAAAA [XGTACX_site1884],8.24 ± 0.86
3,ATATATTTATATATTACACACAATATTGTACAGATA [CACACA_site8215],7.97 ± 0.4
4,AAATACTTGTCATATTGTACATGTTTGTGATATATA [XGTACX_site3185],7.64 ± 0.35
5,GTTAAGAATATATAATGTACTTATTTTAATATAGTA [XGTACX_site6088],7.58 ± 0.3
6,AATAATCTATATTGTACACACAAAATGGGAAAAAAA [CACACA_site6969],8.11 ± 0.73
7,AATTAGATTTACTGAAGTACTTAATTTATTTTATTA [XGTACX_site3407],7.42 ± 0.68
8,AGGTACTTTTTTAAAACACACATATAACATATACAC [CACACA_site6629],8.29 ± 0.34
9,ACCCCCAATACGGAAACACACAAGTTATTTTATCAT [CACACA_site8874],8.87 ± 0.67
10,ATATAAAATAATAAGGGTACAGGTCTCTGCGATGTT [XGTACX_site786],7.75 ± 0.73
11,TAAAATATTGTTATTACATGCAACCTTATGAAAAAT [TGCATGCA_site706],7.78 ± 0.55
12,ACTCGCATATTTAAATGTACTTAATTAGAAGAAAAA [XGTACX_site3304],8.03 ± 0.33
13,AGAATTTTAGATTTAGCACACATTTTTTTTTTTTTT [CACACA_site4081],8.34 ± 0.45
14,AACAAGAAATAATCACGTACACATTATAATAACTAA [XGTACX_site8184],7.92 ± 0.42
15,CTTTAATATTTTATTTCACACACATAAATGCCCCAA [CACACA_site8569],8.9 ± 0.12
16,AAAATTAAAATAGTAATACACACTTCATAGGAAATG [CACACA_site1762],7.47 ± 0.71
17,AAAAAAAAAAAAAAAAAAAAAAAAAAAAGTTAAAAA [TGCATGCA_negctrl_site74],9.95 ± 0.042
18,AAAAAAAAAGATCACACACACATAAATATAAACAAA [CACACA_site5285],7.73 ± 0.55
19,TGATATTATTATAAGGTGCTTAAAAATAAAGATAAT [GTGCAC_site9539],10.1 ± 0.26
20,TTTAAAAATTTGATCAAACACACGTTGCATAAATTA [CACACA_site3945],8.12 ± 0.52
